# From publication PMC4336329 (PLoS ONE, 2015)
# Screen size: about 310,000 compounds; about 14,000 (4.5%) showed an effect of 50% or more. Effects have a minus sign here. The list shows a part of the results.
# Molecular target: human ether-à-go-go-related gene (hERG) potassium channel (human, UniProt Q12809)
# Assay: primary screen, population patch clamp on CHO cells stably expressing hERG
# 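Note: peak tail current of the secondary pulse compared with the same well before compound.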
# human ether-à-go-go-related gene (hERG) potassium channel, sequence (Q12809 whole entry, looked up): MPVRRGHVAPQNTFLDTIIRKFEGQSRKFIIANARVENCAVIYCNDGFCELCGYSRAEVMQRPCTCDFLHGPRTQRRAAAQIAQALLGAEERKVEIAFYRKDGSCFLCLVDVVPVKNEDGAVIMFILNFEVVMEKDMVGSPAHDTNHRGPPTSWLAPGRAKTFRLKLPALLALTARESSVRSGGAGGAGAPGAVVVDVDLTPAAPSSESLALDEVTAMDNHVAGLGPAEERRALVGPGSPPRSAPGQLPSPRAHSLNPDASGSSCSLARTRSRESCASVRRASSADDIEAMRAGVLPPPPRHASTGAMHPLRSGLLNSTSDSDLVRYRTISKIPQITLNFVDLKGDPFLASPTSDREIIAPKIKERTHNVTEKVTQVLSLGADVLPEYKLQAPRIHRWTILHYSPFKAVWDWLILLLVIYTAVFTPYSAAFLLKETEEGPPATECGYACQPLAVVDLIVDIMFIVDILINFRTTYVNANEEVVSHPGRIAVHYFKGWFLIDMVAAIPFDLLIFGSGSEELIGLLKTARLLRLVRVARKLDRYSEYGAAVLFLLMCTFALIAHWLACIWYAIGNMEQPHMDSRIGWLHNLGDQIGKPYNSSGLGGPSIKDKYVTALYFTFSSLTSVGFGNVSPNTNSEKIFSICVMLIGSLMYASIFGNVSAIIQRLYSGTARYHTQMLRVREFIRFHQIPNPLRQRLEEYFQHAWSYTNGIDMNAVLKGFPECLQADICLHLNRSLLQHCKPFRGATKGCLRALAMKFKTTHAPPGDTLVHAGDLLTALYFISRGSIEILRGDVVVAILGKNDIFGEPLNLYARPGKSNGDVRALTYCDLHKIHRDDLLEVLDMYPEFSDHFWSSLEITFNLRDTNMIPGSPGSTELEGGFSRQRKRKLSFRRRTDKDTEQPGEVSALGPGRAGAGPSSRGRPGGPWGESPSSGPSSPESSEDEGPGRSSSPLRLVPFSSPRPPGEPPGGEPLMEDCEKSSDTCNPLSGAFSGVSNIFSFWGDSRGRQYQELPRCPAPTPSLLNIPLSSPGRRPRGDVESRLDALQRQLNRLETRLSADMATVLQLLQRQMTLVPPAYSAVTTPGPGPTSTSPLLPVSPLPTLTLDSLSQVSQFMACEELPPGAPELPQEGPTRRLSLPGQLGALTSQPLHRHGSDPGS
row,Structure (SMILES),"hERG current change (%, negative = inhibition) at 10uM"
1,CCOC(=O)c1nn(-c2ccc(F)cc2)c(-c2ccccc2)c1C(=O)c1ccccc1,2.45%
2,CN(C(=O)CC1C(=O)NCCN1Cc1ccc(F)cc1Cl)C1CCCCC1 (centres unmarked),-2.68%
3,CCOC(=O)c1c(N=CN(C)C)c(C#N)c2n1CCCC2,-6.8%
4,Cc1c(C#N)c(N)nc2c3c(sc12)NC(=O)CC3c1ccc(Cl)cc1 (centres unmarked),-0.141%
5,O=C(Nc1cccc(NC(=O)c2cccs2)c1)c1ccc(F)cc1,13.5%
6,CCOc1ccc(CCNC(=O)COC(=O)COc2ccc(Cl)cc2)cc1OCC,1.26%
7,NC(=O)NCc1cccs1,7.27%
8,CCCc1cc(=O)[nH]c(SCC(=O)NC(=O)NC2CCCC2)n1,4.35%
9,CN(C)c1ccc(N2C(=NC(=O)c3ccccc3)SC3CS(=O)(=O)CC32)cc1 (centres unmarked),3.69%
10,COc1cccc(-c2cc(C(=O)Nc3ccncc3)c3ccccc3n2)c1,0.0486%
11,Cc1ccc2[nH]c3c(=O)n(CCCN4CCOCC4)cnc3c2c1,-17.8%
12,CCOC(=O)c1[nH]c2ccc(F)cc2c1NC(=O)C1=COCCO1,7.28%
13,O=C(CSc1ccc(-c2cccs2)nn1)NCCc1ccccc1,-14.1%
14,CCN=C(NCC)SC1CC(=O)N(c2ccc(OC)cc2)C1=O (centres unmarked),0.718%
15,Cn1cnnc1Sc1nc2c(c(=O)n(C)c(=O)n2C)n1C,-1.73%
16,COc1ccc(-c2[nH]ncc2CN2CCN(C3CCCCC3)C(=O)C2)cc1F,-20%
17,CCCOc1ccc(/C(O)=C2\C(=O)C(=O)N(c3ccccn3)C2c2ccccc2F)cc1C (centres unmarked),-18%
18,COc1ccc(/C=N/NC(=O)c2ccccc2F)cc1CN1CCN(c2ccc(F)cc2)CC1,-76.2%
19,Cc1cc(NS(=O)(=O)c2ccc(NC(=O)C(C)Oc3ccc(Cl)cc3)cc2)no1 (centres unmarked),12%
20,O=C(NC1CCCCC1)C1CCN(C(=O)c2ccc(-c3ccccc3)cc2)CC1,20.2%
21,COc1ccc2[nH]c(C)c(C(=O)CN3CCN(C/C=C/c4ccccc4)CC3)c2c1,-25.8%
22,CC(Oc1ccc(-c2ccccc2)cc1)C(=O)N1CCOCC1 (centres unmarked),15.4%
23,COc1ccccc1NS(=O)(=O)c1cccc(C(=O)N/N=C(\C)c2cccnc2)c1,-17.7%

row,Structure (SMILES),"hERG current change (%, negative = inhibition) at 10uM"
1,CCCn1c(N)c(N(CCOC)C(=O)COC(=O)c2ccccc2NCCO)c(=O)[nH]c1=O,4.72%
2,O=C(O)COc1ccccc1/C=N/NC(=O)CSc1nc2ccccc2s1,9.71%
3,NS(=O)(=O)c1ccc(Nc2nc(-c3ccc4ccccc4c3)cs2)cc1,-7.18%
4,C=CCNC(=S)Nc1ccc(N(C)C)cc1,-6%
5,CCOC(=O)CNC(=O)c1ccc(C#CC2(O)CCCCC2)cc1,2.68%
6,CCN(C(=O)CSc1nc(C)nc2sc(C)c(C)c12)c1ccc(F)cc1,3.2%
7,NS(=O)(=O)c1ccc(CNC(=O)CNC(=O)c2ccc(F)cc2)cc1,23%
8,Cc1ccc(OCCNC(=O)CNC(=O)c2ccc3c(c2)OCO3)cc1,3.68%
9,Cc1nc(NC(C)c2ccccc2)sc1C(=O)Nc1ccccc1 (centres unmarked),-12.8%
10,Cc1ccc(-c2ccc(=O)[nH]n2)cc1,12%
11,CC(C)(C)C(=O)CNS(=O)(=O)c1ccc(S(=O)(=O)NC2CCCC2)cc1,-3.36%
12,COc1ccc(NC(=S)NC(C)Cc2cccs2)cc1 (centres unmarked),7.6%
13,CN(C)CCCN(C(=O)c1ccc(S(=O)(=O)N2CCc3ccccc32)cc1)c1nc2ccc(Cl)cc2s1.Cl,10.5%
14,O=C(c1ccccc1)c1nn(-c2ccccc2)c(=O)cc1C(F)(F)F,-14.7%
15,Cc1c(N=Cc2cc(Br)cc(Br)c2O)cccc1C(=O)O,9.97%
16,N#CC(c1cccc(Cl)c1)c1ccc2c(C(F)(F)F)cc(C(F)(F)F)nc2n1 (centres unmarked),4.7%
17,Cn1ccnc1COc1ccc(C=O)cc1,10.4%
18,O=C(NC1CCCCC1)N1CCN(CCc2ccccc2)CC1,-21.6%
19,Cc1nc(-c2ccccc2)nc2[nH]ccc(=O)c12,10.7%
20,CCCC[C@H]1COCCS(=O)(=O)N1Cc1cccc(Cl)c1,-17.6%
21,O=C(Cc1ccc(S(=O)(=O)N2CCCCC2)s1)Nc1ccc(F)cc1F,-3.7%
22,CN(C)CCNc1c2c(nc3ccccc13)CCC2,-0.291%
23,O=c1c(C(c2ccc(Cl)cc2)c2c(O)nc3n(c2=O)CCCS3)c(O)nc2n1CCCS2,21.3%

row,Structure (SMILES),"hERG current change (%, negative = inhibition) at 10uM"
1,CCCCNC(=O)N1CCc2ccccc2C1,11.5%
2,N#CC1=C(S)N=C(N)C(c2nc(-c3ccccc3)cs2)C12CCCCC2 (centres unmarked),20.4%
3,O=c1oc2ccccc2cc1-c1csc(NN=C2CCCC2)n1,8.91%
4,CCOC(=O)CCC(=O)OCC(=O)NC(C)C1CC2CCC1C2 (centres unmarked),19.3%
5,CC(=O)NCCc1nc2cc(NS(=O)(=O)c3ccc(Cl)cc3)ccc2n1C,10.4%
6,CCCN1CN(CCc2ccccc2)CNC1=S,2.91%
7,N#CC1=C(SCC(=O)c2ccc(Cl)cc2)NC2=C(C(=O)CCC2)C1c1ccco1 (centres unmarked),-13.2%
8,CCOC(=O)C1=C(C)N(C)C(=O)NC1c1cccc2ccccc12 (centres unmarked),-9.17%
9,Cc1ccc(Cl)cc1N1CCN(Cc2nnnn2C2CCCCC2)CC1,7.78%
10,COc1ccc(/C=C(\C#N)C(=O)Nc2cc(S(=O)(=O)N3CCOCC3)ccc2N2CCCC2)cc1,-5.44%
11,COc1ccc(C(=O)Nc2ccc(S(=O)(=O)Nc3nccnc3OC)cc2)cc1,8.73%
12,CC(C)C(NS(=O)(=O)c1cccc2nsnc12)C(=O)Nc1nccs1 (centres unmarked),-42.2%
13,O=C(COC(=O)c1ccccn1)Nc1cccnc1Cl,-5.76%
14,CCc1cc(=O)n2[nH]c(-c3ccccc3)c(-c3ccccc3)c2n1,10.3%
15,CC(=O)c1cccc(CN2CCCC(C(=O)Nc3ccc(-c4ccco4)cc3)C2)c1 (centres unmarked),-6.44%
16,CCCOc1ccc(NC(=O)CC2Nc3ccccc3NC2=O)cc1 (centres unmarked),38.1%
17,O=C(CSc1nnc(C2CC2)n1Cc1ccccc1)c1cc2ccccc2o1,-5.84%
18,O=[N+]([O-])c1cc2c(cc1/C=N/NS(=O)(=O)c1ccc(Br)cc1)OCO2,8.13%
19,COC(=O)c1sccc1NC(=O)c1cc2c(s1)CCCC2,2.12%
20,C=CCN1C(=O)c2ccc(C(=O)N(C)CC(=O)Nc3ccc(Br)cc3C)cc2C1=O,-52.5%
21,CC(=O)c1ccc(NS(=O)(=O)c2cc(-c3cnc(C4CC4)o3)ccc2C)cc1,19.1%
22,CCn1c(=O)c(C(=O)NCCc2ccc(OC)c(OC)c2)c(O)c2ccccc21,-6.58%
23,CC12CCC(C(=O)N/N=C/c3ccc(O)cc3)(OC1=O)C2(C)C (centres unmarked),9.27%

row,Structure (SMILES),"hERG current change (%, negative = inhibition) at 10uM"
1,CCc1cc2cccc(C)c2nc1SCC(=O)Nc1cc(C)on1,20.8%
2,O=C(NC(=S)Nc1ccc2c(c1)OCCO2)c1ccco1,14.9%
3,Nc1nc(Cl)cc(=O)n1Cc1ccc(Cl)cc1,12.2%
4,CC(=O)Nc1c(O)nc(SCc2ccc(Cl)cc2)[nH]c1=O,6.95%
5,O=C(Nc1c(O)c2ccccc2[nH]c1=O)c1ccco1,4.3%
6,O=C(CN1CCOCC1)NNC(=S)Nc1ccc(Cl)cc1,14.1%
7,O=C(NNC(=O)c1ccc2ccccc2c1)Nc1ccc(F)cc1,12.9%
8,O=C(CCS(=O)(=O)c1ccc2c(c1)NC(=O)CS2)NCCc1ccc(Cl)cc1,9.73%
9,CC(C)C(NC(=O)c1ccccc1Cl)C(=O)OCc1nc2scc(-c3ccccc3Cl)c2c(=O)[nH]1 (centres unmarked),-11.6%
10,CCCNC(=O)Nc1ccc2c(c1)N(C)C(=O)c1ccccc1S2,-15.7%
11,COCCC(=O)Nc1ccc2c(c1)CN(C(=O)CCSC)CC2,2.87%
12,O=C(N/C(=C\c1cccs1)C(=O)N1CCOCC1)c1cccs1,-9.07%
13,Cc1occc1C(=O)N/N=C/c1ccc(-c2ccccc2)cc1,6.3%
14,CCOC(=O)c1c(NC(=O)C2C3CCC(O3)C2C(=O)O)sc2c1CCC(CC)C2 (centres unmarked),-21.1%
15,CCOC(=O)N1CCN(c2cc(=O)n(Cc3ccc(F)cc3)c(=O)[nH]2)CC1,-10.1%
16,COc1ccc(NC2CCCN(C(=O)c3cccs3)C2)cc1 (centres unmarked),6.1%
17,Cn1nc(C(=O)Nc2ccc(S(=O)(=O)N3CCOCC3)cc2)c2ccccc2c1=O,2.36%
18,N#Cc1nc(-c2ccc(Cl)cc2)oc1NCC1CCCO1 (centres unmarked),31.3%
19,Cc1cc(C(=O)CSc2ncccn2)c(C)n1Cc1ccco1,0.392%
20,COc1ccc(CCn2c(=N)c(S(=O)(=O)c3ccc(C)cc3)cc3c(=O)n4ccccc4nc32)cc1,15.1%
